# Test results reported in US11185553B2, “Pharmaceutical composition for preventing or treating ischemic-reperfusion injury comprising bile acids” (priority 2016, dated 2021).
# Tested on: human umbilical vein endothelial cells (HUVECs)
# Assay: In vitro cell proliferation (cell counting method and CCK-8 staining)
# Type: cell-based
# Conditions: 1 μM, 24 hours
compound,measurement,setting,value
C[C@H](CCC(=O)O)[C@H]1CC[C@H]2[C@@H]3[C@H](O)C[C@@H]4C[C@H](O)CC[C@]4(C)[C@H]3C[C@H](O)[C@]12C [cholic acid],cell proliferation effect (CCK-8 assay),FIG. 4B,significant a cell proliferation effect
same,"cell proliferation effect (cell counting, proliferation assay)","vs control group, FIG. 4A",more significant cell proliferation effects than the control group
